In PubChem BioAssay AID1645882 (National Center for Advancing Translational Sciences (NCATS), 2021):
Where a name gives a salt, the structure may show the parent alone. The campaign covered roughly 16,000 compounds. About 120 (0.75%) were called active. Another 4% or so got no clear call; they are omitted. Calls follow the shape of the dose curve; as a rule, active = well fitted inhibition curve with a large enough effect; inconclusive = small, poorly fitted or top-dose-only effect; inactive = no such curve, though single readings can be large or run the other way. The list shows a part of the results. Where a SMILES comes first, the peptide text is derived from it. The star is where a group is joined. Tfa = O=C(C(F)(F)F)*

target: Rap guanine nucleotide exchange factor 3 (Homo sapiens) (UniProt O95398); test: Validation qHTS for antagonist of cAMP-regulated guanine nucleotide exchange factor 3 (EPAC1); details: EPAC1 Rap1B-BODIPY-GDP exchange, fluorescence; series mostly up to 150 µM; activity change, negative = inhibition: at the top concentration; also: nearly all actives have a fitted effect of over 75% in size;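 as to activity change, negative = inhibition: plate controls were DMSO for no effect and ATA control for full effect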
Chain of UniProt O95398 (O95398 whole entry, looked up): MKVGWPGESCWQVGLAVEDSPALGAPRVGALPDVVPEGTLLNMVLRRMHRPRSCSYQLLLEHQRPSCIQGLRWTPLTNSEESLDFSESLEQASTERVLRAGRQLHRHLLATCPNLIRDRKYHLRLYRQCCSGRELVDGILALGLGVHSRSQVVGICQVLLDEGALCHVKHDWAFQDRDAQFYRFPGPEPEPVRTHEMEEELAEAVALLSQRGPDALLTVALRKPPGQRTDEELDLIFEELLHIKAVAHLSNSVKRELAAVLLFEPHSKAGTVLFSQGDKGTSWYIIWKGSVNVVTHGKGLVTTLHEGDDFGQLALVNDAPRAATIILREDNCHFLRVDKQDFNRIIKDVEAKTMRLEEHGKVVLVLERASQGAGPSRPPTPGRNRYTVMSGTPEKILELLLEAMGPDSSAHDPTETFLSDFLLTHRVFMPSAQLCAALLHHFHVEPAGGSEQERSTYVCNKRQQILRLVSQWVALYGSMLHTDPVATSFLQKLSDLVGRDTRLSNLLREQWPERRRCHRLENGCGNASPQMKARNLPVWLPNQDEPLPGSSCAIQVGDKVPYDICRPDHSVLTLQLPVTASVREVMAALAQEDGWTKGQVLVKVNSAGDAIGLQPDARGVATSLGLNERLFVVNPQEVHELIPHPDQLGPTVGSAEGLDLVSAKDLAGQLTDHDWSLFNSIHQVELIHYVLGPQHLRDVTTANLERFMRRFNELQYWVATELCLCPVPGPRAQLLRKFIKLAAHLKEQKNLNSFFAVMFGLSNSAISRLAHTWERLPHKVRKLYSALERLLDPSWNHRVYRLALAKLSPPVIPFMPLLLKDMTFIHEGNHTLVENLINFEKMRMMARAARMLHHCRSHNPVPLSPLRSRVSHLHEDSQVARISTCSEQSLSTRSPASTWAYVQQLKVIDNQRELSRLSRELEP
Method in brief: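 Nucleotide exchange followed as fluorescence loss when BODIPY-GDP leaves Rap1B (480 nm excitation, 540 nm emission), read at 5 min intervals over 30 min. Reaction: 100 nM EPAC1, 250 nM RAP1B-BODIPY-GDP, 50 uM GDP; ATA and DMSO define normalization.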
Potency is read from the fitted curve at half-maximal effect.

Structure (SMILES) | activity change, negative = inhibition | Potency
N[C@@H](C(=O)O)c1ccc(O)c(C(=O)O)c1 | inactive: 6.82% | 
Cc1cc(CC(C)CC(C)(C)C)n(O)c(=O)c1 (stereo not drawn) (tested in a mixture with another compound) | inactive: -1.43% | 
COc1ncc2nc(C)c(=O)n(-c3ccccc3)c2n1 | inactive: -2.6% | 
OC1(c2cccnc2)CCN(Cc2ccc3c(c2)CN(Cc2cc4ccccc4s2)CCO3)CC1 | inactive: -8.5% | 
C1=C/C(=C2/C=Cc3ccccc32)c2ccccc2N1 | inactive: 10.6% | 
CCn1cc(C(=O)O)c(=O)c2cc(F)c(N3CCNCC3)cc21 | inactive | 
COc1ccc(CNc2nc(-c3ccccc3CN(C)C)nc3ccccc23)c(OC)c1 | inactive: 1.05% | 
CC1C(=O)CC2C3(C)CCC2(C(C)C(=O)O)C(=O)C13 (stereo not drawn) | inactive: 17.4% | 
CN1CCN(c2nc(-c3cccc(C#N)c3)nc3ccccc23)CC1 | inactive: 19.4% | 
N#Cc1cccc(CN2CCC(=O)N([C@H](CO)c3ccccc3)CC2)c1 | inactive: 0.517% | 
Cc1ccc(F)cc1S(=O)(=O)NCc1nc(N2CCCC2)c2cccc(C)c2n1 | inactive: 5.1% | 
COc1cccc(Cc2nc3cccnc3n2C2CCN(Cc3ccc(C)s3)CC2)c1 | inactive: 15.4% | 
N[C@H](C(=O)O)[C@H](Cc1ccccc1)C(=O)O | inactive: 3.71% [at 75.8 µM] | 
Cc1cc(C)cc(C(=O)NCCn2cc(C(=O)N3CCSCC3)nn2)c1 | inactive: 1.45% | 
CC(=O)OC[C@@]1(O)C[C@@]23CC[C@@H]4c5ccoc5CC[C@@]4(C)[C@@H]2CCC1C3 | inactive: 29.2% | 
O=C1C[C@H](c2ccccc2)Oc2cc(O)cc(O)c21 | inactive: 7.73% | 
O=S(=O)(c1ccccc1)N1CCC2(CCN(c3cccc(-c4ccccc4)c3)CC2)CC1 | inactive: 15% | 
Cc1nc(C)n(CC(=O)NCC2Cc3cc(-c4cccc(OC(F)(F)F)c4)ccc3O2)n1 (stereo not drawn) | inactive: -16% | 
CN1CCN(c2ncnc3ccc(-c4ccccc4C#N)cc23)CC1 | inactive: 25% | 
COc1cccc(C(=O)N2CCc3c(C(=O)NC(C)c4ccco4)c(OC)cc(=O)n3CC2)c1OC (stereo not drawn) | inactive: 3.99% | 
COc1ccc2[nH]cc(CCNc3ncnc4ccc(-c5cccnc5)cc34)c2c1 | inactive: -7.06% | 
NC(=O)C[C@@H](N)C(=O)O | inactive: 20.1% | 
COc1ccc(-n2c(=O)c(-c3cccs3)nc3cnc(Nc4cccc(OC)c4)nc32)cc1 | inactive: 66.3% | 
CCCCCCCCCCCCCCCCC(C(=O)O)C(O)(CC(=O)O)C(=O)O (stereo not drawn) |  | active: 35.5 µM
Cc1nc2c(OCc3ccccc3)cccn2c1CC#N | inactive | 
COCCC1CCCCN1Cc1nc(N2CCCCC2)c2cc(OC)c(OC)cc2n1 (stereo not drawn) | inactive: 14.3% | 
c1cncc(OC2CCN(Cc3ccc4c(c3)CN(Cc3nc5ccccc5s3)CCO4)CC2)c1 | inactive: 11% | 

Structure (SMILES) | activity change, negative = inhibition | Potency
COCc1c(C(=O)N2CCCCCC2)cnn1-c1nccc(-c2cccs2)n1 | inactive: 14.5% | 
COc1ccccc1/C=C\C(=O)O | inactive: 8.81% | 
COC(=O)N1CCC2(CCCN(Cc3ccccc3)C2)CC1 | inactive: 5.96% | 
CCOC(=O)C1=C(C)NC(C)=C(C(=O)OC)C1c1cccc([N+](=O)[O-])c1 (stereo not drawn) | inactive | 
COCCOC(=O)C1=C(C)NC(C)=C(C(=O)OC(C)C)[C@@H]1c1cccc([N+](=O)[O-])c1 | inactive: -24.9% | 
CCCOc1ccc2nc(NC(=O)OC)[nH]c2c1 | inactive: 8.3% | 
FC(F)(F)c1cnc(-c2cc3c(c(OCC4CCCO4)c2)OCCN(Cc2cccn2-c2nccs2)C3)c(Cl)c1 (stereo not drawn) | inactive: 11% | 
Cc1cccc(CNc2cc(-c3ccoc3)ncn2)c1 | inactive: 12.8% | 
CC1CCC2C(C)(C)C3CC12CC[C@]3(C)O (stereo partly drawn) | inactive: -7.3% | 
Cc1ccc(SC[C@H](C)CN2CC[C@H](C(C)(C)C)CCC2=O)cc1 | inactive: -9.39% | 
CN1CCN(c2ncc3nc(-c4ccc(F)cc4)c(=O)n(Cc4cccs4)c3n2)CC1 | inactive: -5.94% | 
CCCCNC(=O)[C@@H]1CC=C[C@@H]2CCN(Cc3ccccc3)C(=O)[C@@H]21 | inactive: 7.23% | 
CN[C@@H]1[C@@H](O)[C@@H](O[C@@H]2[C@H](O)[C@H](O[C@H]3OC(CN)=CC[C@H]3N)[C@@H](N)C[C@H]2N)OCC1(C)O (stereo partly drawn) | inactive: 20.3% | 
COC(=O)/C(=C1\OC(=O)C(c2ccccc2)C1=O)c1ccccc1 (stereo not drawn) | inactive: 13.4% | 
COc1cc2ccc(=O)oc2c(O)c1OCC=C(C)C | inactive: -4.98% | 
COC(=O)[C@@H]1CCCN1Cc1ccc2c(c1)CN(Cc1ccc3c(c1)OCCO3)CCO2 | inactive: -8.07% | 
CCCCOc1ccc(OCCCN2CCOCC2)cc1 | inactive | 
CC1CCc2cc(F)cc3c(=O)c(C(=O)O)cn1c23 (stereo not drawn) | inactive: 13.3% | 
O=C(NCC1CCCCN1)c1cc(OCC(F)(F)F)ccc1OCC(F)(F)F (stereo not drawn) | inactive | 
COc1cc2c(cc1OC)-c1c(oc3cc(O)cc(O)c3c1=O)CO2 | inactive: -3.34% | 
OC[C@@H](O)[C@H](O)[C@H](O)[C@@H](O)CO | inactive | 
Cc1ccc(SC[C@H](C)CN2CC[C@H](O)CCC2=O)cc1 | inactive: -2.08% | 
Cc1nnsc1C(=O)NCC1Cc2cccc(-c3ncccn3)c2O1 (stereo not drawn) | inactive: 17% | 
C[N+](C)(C)CCOP(=O)([O-])OP(=O)(O)OCC1OC(n2ccc(N)nc2=O)C(O)C1O (stereo not drawn) | inactive: 10.1% | 
COCCn1c(=O)c(CCc2ccccc2)nc2cnc(Nc3ccccc3)nc21 | inactive: 14.6% | 
CC(C)C(NC(=O)C(Cc1ccc(O)cc1)NC(=O)C(NC(=O)C(F)(F)F)C(C)C)C(=O)O (stereo not drawn) (Tfa-Val-Tyr-Val-OH; configuration not given here) | inactive: 14.7% | 
